Reference: the supplement of paper PMC3334620
In all, about 33,000 sequences were measured (“E-score (-0.5 to 0.5)”: median about -0.043, highest 2% from about 0.37 on). The list shows a part of the results.

molecular target: T1, Upc2 (UniProt Q12151); assay: PBM E-score (8-mer binding enrichment) (E-score (-0.5 to 0.5)); higher = stronger / more preferred TF binding; most listed sequences are background and not binding sites; conditions: protein concentration: 200 nM; construct: GST-full length
T1 sequence: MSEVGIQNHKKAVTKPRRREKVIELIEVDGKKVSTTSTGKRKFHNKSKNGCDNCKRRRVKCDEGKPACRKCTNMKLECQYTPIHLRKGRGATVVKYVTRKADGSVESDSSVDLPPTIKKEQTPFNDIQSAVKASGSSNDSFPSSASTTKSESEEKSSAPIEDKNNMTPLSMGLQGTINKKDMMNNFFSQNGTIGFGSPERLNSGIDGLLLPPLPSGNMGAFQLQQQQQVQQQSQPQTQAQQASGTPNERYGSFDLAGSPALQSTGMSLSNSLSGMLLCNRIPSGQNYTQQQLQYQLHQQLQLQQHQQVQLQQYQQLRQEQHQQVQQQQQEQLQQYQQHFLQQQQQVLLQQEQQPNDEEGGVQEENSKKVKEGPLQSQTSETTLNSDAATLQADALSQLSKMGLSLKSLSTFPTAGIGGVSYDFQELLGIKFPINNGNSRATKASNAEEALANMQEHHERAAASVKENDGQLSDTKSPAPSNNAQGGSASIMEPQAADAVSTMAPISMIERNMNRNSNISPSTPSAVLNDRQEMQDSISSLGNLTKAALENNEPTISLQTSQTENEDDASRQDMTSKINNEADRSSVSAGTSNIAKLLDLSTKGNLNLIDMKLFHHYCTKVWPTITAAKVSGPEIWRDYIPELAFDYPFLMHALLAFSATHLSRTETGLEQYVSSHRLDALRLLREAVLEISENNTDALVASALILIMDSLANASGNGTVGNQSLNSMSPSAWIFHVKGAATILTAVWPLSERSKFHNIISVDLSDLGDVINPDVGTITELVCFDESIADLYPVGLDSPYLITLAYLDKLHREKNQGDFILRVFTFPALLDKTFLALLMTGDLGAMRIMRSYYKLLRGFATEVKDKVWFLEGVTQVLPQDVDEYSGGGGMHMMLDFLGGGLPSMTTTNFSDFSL
Description: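 Universal 'all 10-mer' protein binding microarrays (Agilent AMADID 015681) probed with GST-tagged S. cerevisiae TFs (full-length or DBD) made by in vitro transcription/translation (PURExpress), about 100-200 nM. Bound TF was detected with fluorescent anti-GST. Each ungapped 8-mer (which stands for itself and its reverse complement) is scored by the PBM enrichment score (E-score), a modified Wilcoxon-Mann-Whitney statistic from -0.5 to +0.5, computed with the Universal PBM Analysis Suite. Scale: above 0.35 generally sequence-specific binding.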

| Sequence | PBM E-score |
| --- | --- |
| AGCGAAGG | 0.11 |
| CTCCCTAA | -0.00538 |
| GACGGAGC | -0.206 |
| ACAATCAA | 0.00599 |
| CCCTAGCG | -0.418 |
| AACGACAA | 0.402 |
| AAATGATG | 0.0371 |
| AATGTACT | -0.0221 |
| CTAGTCCC | -0.181 |
| TGACGGCA | -0.128 |
| CAACAGAC | -0.0636 |
| CAGAAAAC | 0.0505 |
| ACGGCTCG | 0.268 |
| GTCAACAC | -0.0877 |
| CAGCTGTA | -0.0208 |
| CACCGGTA | 0.0555 |
| TATTCGAA | 0.221 |
| GTACGCAC | 0.322 |
| GAGTCCAA | -0.186 |
| CCATCGTC | -0.0745 |
| CACTGGTA | -0.0389 |
| GGTACACC | 0.0641 |
| AATAGAAT | -0.00962 |
| ATCACTAG | -0.078 |
| AGCAGGCT | -0.287 |

| Sequence | PBM E-score |
| --- | --- |
| CCAGAACG | 0.275 |
| ACCGGTCA | 0.0537 |
| ATCGCCCG | 0.0502 |
| CTTACATC | 0.0953 |
| GAGACGGA | -0.233 |
| TACCGTGA | -0.035 |
| ACTGTCAA | -0.0815 |
| CTTGAGTC | -0.0451 |
| ATAGAGCG | -0.0755 |
| ATGGTGCA | -0.0485 |
| CTGACTTA | -0.0443 |
| ACTTCTCT | -0.035 |
| AATTGCCC | -0.148 |
| ACGTTTTG | -0.0436 |
| CGCGGTTA | -0.0473 |
| GGCGAGCA | -0.0402 |
| GTCTAAAA | 0.0594 |
| CCGGTGAG | -0.221 |
| GGATTGCA | -0.224 |
| AAAGGTGA | -0.0702 |
| GGGAGATA | -0.196 |
| CCGATCGC | 0.0725 |
| AGAGAATC | -0.188 |
| CGAACACA | 0.168 |
| TCATCGAA | -0.0529 |

| Sequence | PBM E-score |
| --- | --- |
| AGTATGAT | -0.0278 |
| GCCCGCGC | -0.155 |
| AATCGTCA | 0.0304 |
| CAGGCAGG | -0.187 |
| ACCGTAGG | -0.135 |
| CACCCCTG | -0.408 |
| AATCGTGA | -0.165 |
| CGGCGACG | -0.0206 |
| CGCGTTAA | 0.218 |
| CCTATCCG | 0.165 |
| AGAAAAGG | -0.259 |
| GATGATAC | 0.0998 |
| TACATACA | 0.162 |
| ATAAACGG | 0.434 |
| GCTAATAA | 0.16 |
| CACGTCGG | 0.129 |
| CAATCGGA | -0.0741 |
| CCTGTACG | 0.436 |
| AGTGTCGG | -0.0914 |
| ATAAAAGC | -0.0242 |
| AGTGGTTC | -0.0177 |
| TTACCAAA | -0.0507 |
| GATGAGGC | -0.277 |
| ACGTCAGT | -0.0862 |
| GACGTATA | 0.424 |

| Sequence | PBM E-score |
| --- | --- |
| CACGCCAA | -0.00227 |
| AGGGTCAA | -0.0702 |
| CCAGCAGC | -0.28 |
| ATAAGTTA | 0.0405 |
| GGTAATAC | 0.0537 |
| AGCCCTTA | -0.0389 |
| GTCGTAAC | 0.408 |
| ACCGATAA | 0.158 |
| GAAGCGCA | 0.0636 |
| GCCTCTAC | -0.162 |
| CCTTGCCA | -0.151 |
| ATACTAAG | 0.00764 |
| GAATTCCC | -0.0191 |
| CCGAGAAA | 0.188 |
| ATGCTGCC | -0.137 |
| ACTAGCAG | -0.0997 |
| CTGTAGTC | 0.0304 |
| AGCTCTAC | -0.187 |
| CGCGTGCA | -0.144 |
| CGAATCAA | 0.146 |
| CTCAGTCC | -0.119 |
| CAACCATA | -0.025 |
| ATGCATAG | -0.199 |
| CGCTAAGA | 0.226 |
| GCGTAAGC | 0.195 |

| Sequence | PBM E-score |
| --- | --- |
| CCGTGTAG | 0.0505 |
| CAGCTATA | 0.0617 |
| ATCGGCCA | -0.112 |
| ACCAGCCA | -0.25 |
| CACGTACC | 0.188 |
| GACGACGC | 0.0643 |
| CGTGTCAC | 0.0221 |
| CCTTATTA | 0.00112 |
| AAGGCATT | -0.274 |
| AAAGGTGT | 0.0174 |
| CAGGACTC | -0.0969 |
| CCCCAGAG | -0.261 |
| ACCCACTC | -0.193 |
| AATTGACT | -0.161 |
| AGCGGTCG | -0.0043 |
| ATGTTCTA | 0.00632 |
| AAACTTGC | 0.117 |
| ACCTCCCA | -0.176 |
| ATACGTCA | 0.278 |
| AGAGCAGC | -0.163 |
| TCCATTCA | -0.0632 |
| CAACTCGG | -0.112 |
| GACTGACC | -0.0564 |
| ACCCACAA | -0.045 |
| CAAGTTTC | 0.0271 |

| Sequence | PBM E-score |
| --- | --- |
| ACCATGCT | 0.0936 |
| CTAGCTGC | -0.235 |
| GACCAATA | -0.0983 |
| AGTGCCAT | -0.133 |
| GCACTAGC | -0.0308 |
| CCGCCCTC | -0.0106 |
| GGCTGCTA | -0.0267 |
| CCGTCGGA | 0.0146 |
| AGTCCGAA | -0.0353 |
| ATAGTTGG | -0.011 |
| CCCAAGGG | -0.25 |
| GTGACGAA | -0.0408 |
| ACCGGGAC | -0.198 |
| AATAAGAG | 0.0887 |
| AGGAGTAC | 0.0231 |
| AATTTTAT | -0.038 |
| CACCATTC | -0.231 |
| ACCAATGA | -0.106 |
| ATTCAAAC | 0.0935 |
| ACGGGAGA | 0.0541 |
| ACAGGTTA | -0.066 |
| CCCAACCA | 0.0293 |
| AGTAGTCG | 0.198 |
| TGCGTAAA | 0.294 |
| TATGCTCA | -0.123 |

| Sequence | PBM E-score |
| --- | --- |
| ATGTCCAA | -0.0286 |
| CCTTGCAA | -0.115 |
| GCTGTGAA | -0.0401 |
| AGCCCCAG | -0.129 |
| AATGAGCA | -0.149 |
| GCGAAGAC | -0.0814 |
| CGTTCTTC | 0.225 |
| GAAAACCC | -0.0313 |
| GTTCACCA | 0.101 |
| AATTCATC | -0.0871 |
| GCCGAAGC | -0.115 |
| AGGTGCCG | -0.137 |
| CCGTAGAG | 0.216 |
| CGCTAAAC | 0.345 |
| CAGTAAGC | -0.103 |
| ATGCCCAG | -0.329 |
| CGGGCATC | 0.0742 |
| GATAATAA | -0.00643 |
| CGGAAGTA | 0.0369 |
| CCCCACCG | 0.0968 |
| GATATTGC | 0.00035 |
| AGTTCGTG | 0.158 |
| CGTTGCTA | 0.0827 |
| CTTAACGA | 0.464 |
| CGTGTTGA | -0.027 |

| Sequence | PBM E-score |
| --- | --- |
| AGCTATCG | 0.0416 |
| CCAGCCAA | -0.107 |
| AGCTCACT | -0.138 |
| GTCAGGCA | -0.192 |
| ACAAAGAG | -0.214 |
| CAGTCGGC | -0.152 |
| ATCTACGG | -0.0234 |
| CGGATACG | 0.408 |
| CGCGGCAA | 0.0872 |
| CCTCGTAG | 0.389 |
| GTACTTGA | 0.0766 |
| ACTACATG | -0.0312 |
| ATTTCATA | 0.00209 |
| GGGGGGAC | -0.217 |
| CCGCTGAG | -0.12 |
| ACTTGGAC | -0.0247 |
| ACCTTCTC | -0.113 |
| ACCTGCCG | -0.0517 |
| CAGTGATG | 0.119 |
| AAAAAATC | -0.0542 |
| AGAACACA | -0.0617 |
| AGGTTAGC | -0.3 |
| CTATGTGA | -0.109 |
| CGAACATA | 0.102 |
| CAGTCAAG | -0.176 |

| Sequence | PBM E-score |
| --- | --- |
| GGATCCCA | -0.216 |
| GCACCTAC | -0.2 |
| TAGACCAA | -0.148 |
| AGACATAG | -0.0991 |
| TCAATGAA | -0.0537 |
| ATTGCGCC | 0.0449 |
| AGCGGCTA | -0.164 |
| CGTTCGAC | 0.128 |
| ACCGACTC | 0.125 |
| AGAAATGA | -0.0879 |
| TACCAGAA | 0.0985 |
| ATGACCCC | -0.168 |
| AAGGTCGG | -0.187 |
| AGCTTCTA | -0.0602 |
| AATAAGTG | -0.15 |
| ACACATCT | -0.114 |
| CCCACTAA | -0.18 |
| CTATTACC | -0.036 |
| ACGGGTAC | 0.302 |
